The assay concerns NCI-H322M lung. The experiment in a line: inhibition of tumour cell growth, NCI panel, 48 h.

The structures appear in SMILES notation.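 In this assay, cells in 96-well plates receive the compound at five concentrations for 48 hours. Endpoints are linearly interpolated between the surrounding concentrations. Here, GI50 denotes the concentration required for 50% inhibition of growth. TGI denotes the concentration required for complete inhibition of growth.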 Some results are limits rather than exact numbers.

As for `C[C@]12CC[C@@H]3c4ccc(O)c([N+](=O)[O-])c4CC[C@H]3[C@@H]1CC[C@@H]2NS(=O)(=O)c1cccc(Br)c1`, the GI50 was 3.3 µM and the TGI was 11.7 µM. For `CC1=C[C@@H](C)C[C@]2(C)CC[C@H](O2)[C@]23CC[C@](C(=O)O)(C[C@H](O2)[C@@H]2O[C@@](C)(CC2=O)[C@@H](O)[C@H]2CC[C@@]4(CCC[C@@H](O4)[C@H](C)C(=O)O[C@H]4C[C@H]([C@]5(O)OCC[C@H](C)[C@@H]5O)O[C@H]4C=C1)O2)O3`, the TGI is greater than 10 µM. On the same count and under the same terms, as for `O=c1n(Cc2ccccc2)c(=O)n2c(=O)n(Cc3ccccc3)c(=O)n12`, the figure is greater than 100 µM; as for `C[C@]1(S(=O)(=O)c2ccccc2)C[C@H]2N(Cc3ccccc3)[C@@H]1CCC21OCCO1`, greater than 100 µM.

As for `Cn1ccnc1Sc1ccc(C=Nc2ccc3nc(SCC(=O)NC4CCCCC4)sc3c2)cc1[N+](=O)[O-]`, the TGI is greater than 100 µM. `CCOC(=O)C1(C(=O)OCC)CCCN1C(=O)[C@H](CNC(=O)OC(C)(C)C)NC(=O)OCc1ccccc1`: the TGI is greater than 100 µM. As to `O=C(c1ccccc1)N1C(=S)N=C(Nc2ccccc2)C1=Nc1ccccc1`, the TGI is greater than 100 µM.

With `O=C(O)CSc1n[nH]c(Cc2ccccc2)n1`, the TGI was greater than 100 µM. For `O=C1CSC(c2ccc(-c3nc4ccccc4s3)cc2)=N1`, the GI50 is 13.2 µM and the TGI was 73.9 µM.

On to `c1csc(-c2c3ccc(=[N+]4CCCCC4)cc-3oc3cc(N4CCCCC4)ccc23)c1`, for which the GI50 was 0.0366 µM and the TGI turned out to be 0.162 µM. In the case of `O=C([CH-]C(=O)c1ccccc1)c1ccccc1.O=C([CH-]C(=O)c1ccccc1)c1ccccc1.[O]=[U+2]=[O]`, the GI50 is 3.4 µM and the TGI turned out to be 60.5 µM. For the compound `COC(=O)CCC1=C(CC(=O)OC)C(C)=N/C1=C\c1[nH]c(-c2ccc[nH]2)cc1OC`, the GI50 was 10.5 µM and the TGI stood at 25.3 µM. `COC(=O)[C@H](Cc1ccccc1)NC(=O)c1ccc(CNC(=O)/C=C/c2cccc(Oc3ccccc3)c2)cc1` displayed a TGI greater than 100 µM. The same measure, in the same setting: in the case of `CSC(SC)=C1C(=O)N(c2ccccc2)N=C1C` it was greater than 100 µM.

Source of the values: PubChem BioAssay (NCI).
